# Results taken from PMC10668032.
# This is one part of the list. At the low end of the ranking the order means little.
# Molecular target: SIX1-Q177R homeodomain (UniProt Q15475)
# Test: universal protein binding microarray
# Settings: Universal all-10-mer PBM (8x60K, AMADID 030236), 300 nM GST-tagged protein, Alexa Fluor 488 anti-GST; buffer, salt, pH and temperature not stated; high values mean tight binding; most listed sequences are background and not binding sites; double strand, one strand shown
row,Sequence,binding signal [E-score]
1,GACGTATC,-0.0235
2,CACTACGG,0.188
3,CAAGCACG,-0.0496
4,AGTAATAG,-0.12
5,CATATTGC,-0.207
6,CGCAGGTC,-0.272
7,CCCCCAAC,0.17
8,AGAGAATG,-0.252
9,ATCAGATG,-0.0562
10,AACTTCAA,-0.0573
11,CCGCTTTC,-0.107
12,CTGAATGA,-0.123
13,CGTCACCC,-0.0338
14,ATACAGAC,-0.0141
15,ATGGCTAA,-0.0563
16,CGCTTACC,-0.0323
17,AACGTTGT,-0.222
18,AAGTCCAC,-0.223
19,AAGAGCAG,-0.202
20,ACGCAGGC,-0.127
21,ACCAGACG,-0.0377
22,GCGGAGAA,-0.134
23,CTGAATAC,-0.107
24,CGCTACGC,-0.0806
25,AGCTTATA,-0.237

row,Sequence,binding signal [E-score]
1,AGCAAAAG,-0.346
2,CCGCGCCG,0.0327
3,ACTCCTTG,0.141
4,CAAGAAAC,-0.108
5,ACAGATGG,-0.163
6,ACCGGAGG,0.183
7,CCGTCAGA,-0.0859
8,ACGCAGCA,-0.104
9,AAACGAGT,0.0876
10,TAGCAATA,-0.127
11,ACCATTCG,0.0723
12,CCCCCTCG,0.13
13,CCGGGGTA,0.284
14,AATAAGGC,-0.176
15,GAAAGTGA,0.0537
16,CCTAGCCG,-0.227
17,CGTGCGTC,0.0875
18,AAACGCGA,-0.0925
19,AATGGCTG,-0.16
20,GTTTGTCA,-0.0318
21,CGCAGGAA,-0.0176
22,GGGCCCAA,-0.228
23,AACCCAGT,0.128
24,AATGTTGA,-0.0639
25,GACAGGTA,-0.0714

row,Sequence,binding signal [E-score]
1,AGACGCGC,-0.083
2,GATGTCGA,0.0722
3,CAGCCAAG,-0.0627
4,CGTCCTTC,-0.189
5,CTTTATTC,-0.148
6,GGCCCACA,-0.0956
7,ACCACTTA,0.0302
8,AATGCTTA,-0.149
9,ATATGGGG,0.0724
10,CGCTCTAG,-0.0165
11,CACTACGC,0.166
12,AAACTCCG,-0.117
13,ATACACTC,0.369
14,CCAACGGC,-0.184
15,CACCCCCG,0.325
16,GCGCAATA,0.122
17,CACCAAGA,0.341
18,CCTACTAA,-0.0637
19,AACCCTGG,0.0197
20,GCTTAAAC,-0.21
21,AGCTCCAC,-0.151
22,CCTGGGTA,0.164
23,AGCTTCTC,-0.289
24,CAACCGGC,-0.0605
25,ACCAGTAA,0.179

row,Sequence,binding signal [E-score]
1,TGTCTCAA,0.086
2,ATACCTGC,0.15
3,GGCACCCC,0.158
4,GGTCACCA,-0.0527
5,AACAAGCT,-0.221
6,ATGTCCAC,-0.145
7,TAAGAACA,0.0896
8,CCACAAGG,-0.0167
9,AAGGGCGC,-0.213
10,ACGAGGTG,0.251
11,TAGGTCAA,-0.0796
12,CTTCAGAC,-0.0523
13,GGATTAAA,-0.103
14,TCCTGCGA,-0.12
15,ACTACGTC,0.000585
16,ATTAAAGG,-0.126
17,ATCGCCGA,-0.231
18,AGGGTTCG,0.0298
19,CTGTCAAG,-0.203
20,AGCATTCC,-0.381
21,AAGAGACG,-0.0234
22,AGGTTTAC,0.0661
23,AGAAGCGC,-0.0149
24,AGGAAGGG,-0.193
25,ACGAGGGC,-0.0253

row,Sequence,binding signal [E-score]
1,AAAGTCGA,-0.0293
2,TCGCTGAA,-0.224
3,CATCACAG,-0.151
4,AATCTTCG,-0.322
5,AGTGGGGA,0.104
6,CCGGTAGA,0.038
7,CGGGTGAG,0.0241
8,CATGGCCC,-0.229
9,CATTTCAG,0.0585
10,AAGTGGAG,-0.0331
11,ACGTCAGT,-0.142
12,GTCCACTA,0.15
13,CGTTATGC,-0.0728
14,CTTTTTGC,-0.169
15,AGTAGATG,-0.0828
16,CACGAAGC,0.0701
17,AATATACT,-0.183
18,CTTGGGTA,0.0134
19,ACCAACGA,0.187
20,ACACGAAA,0.302
21,CGGGATGA,-0.171
22,CGAGACCC,0.0864
23,CGGCAGAC,-0.105
24,GGCTAGCA,-0.205
25,ATGCTAAC,0.144

row,Sequence,binding signal [E-score]
1,ACGTAAGA,-0.0933
2,ACGCTGCT,0.104
3,AAGGCTGT,-0.0818
4,GGCAAGCA,-0.294
5,AGACTCGA,-0.206
6,CGTGATTA,0.0287
7,TGGCTACA,0.0519
8,CGAGGGCG,-0.0918
9,AGCCAGTG,-0.0125
10,ACTAATCT,0.043
11,AGCGTATG,-0.0904
12,ATCGCGTC,0.14
13,ATCTCGGG,0.0995
14,AAGCTTGC,-0.182
15,ACAGCTTG,-0.062
16,GGTTCTAA,-0.0349
17,CCAGCAAG,-0.0803
18,ATTGCGGG,0.0525
19,AACAAGGA,0.0668
20,CGGGTGCC,0.145
21,GGCCCTAA,-0.193
22,AGAAGGGA,0.0316
23,ATCACGTG,0.0529
24,CTTTAGCA,-0.145
25,GCGCCTCA,-0.396

row,Sequence,binding signal [E-score]
1,AGTTTTAA,-0.0842
2,CTCTTACA,0.183
3,GTCTCTCA,0.00979
4,GCGGTCCC,-0.123
5,AGCGCCCC,-0.175
6,CGACAGGA,-0.17
7,ACCTCCGT,-0.025
8,TTCTTCAA,-0.166
9,ACGAGAGC,-0.243
10,GGAAGAAA,-0.0911
11,ACTTAAAC,0.0526
12,GCATCTGA,-0.157
13,AGCCCTAC,-0.0459
14,CGCGTTAC,0.0473
15,TAAAGGTA,-0.0186
16,CCCGCTAG,-0.105
17,CTATGAGA,-0.156
18,CGGCCAAA,-0.281
19,AACAGATT,-0.2
20,AACTTCCT,-0.293
21,GTGCTCTA,0.221
22,GACGACCC,0.158
